According to the supplement of paper PMC10126150:
Sequences with one replicate were seen in a single cluster, so their values are uncertain.

System: ATP
Assay: switch fluorescence ratio, 500 uM ATP over buffer (Cy3 cluster intensity, sum of 5 cycles each) (fold (ratio)); higher = stronger signal-on switching upon ATP binding; sequences stand for … in TCGTCGGCAGCGTCAGATGTGTATAAGAGACAGTTTTTTTTTTTTTTTTTTTTTTTTT…TC
Settings: aptamer strand: ATP DNA aptamer (quencher-CACCTGGGGGAGTATTGCGGAGGAAGG + anchor), 100 nM annealed; ATP concentration: 500 uM; one replicate
Outline: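 After annealing to 100 nM quencher-labelled ATP aptamer, Cy3-labelled switching-strand clusters on a modified Illumina MiSeq flow-cell were imaged in selection buffer. A second image followed after 15 min with 500 uM ATP at 22 °C, and five such buffer/ATP cycles were done, each separated by NaOH stripping and re-annealing. The fluorescence ratio, averaged per switch-domain sequence, is summed target-cycle over summed buffer-cycle Cy3 intensity per cluster, with clusters outside 100-1000 RFU excluded.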
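Note: ATP exposure 15 min at 22 °C before imaging.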

Sequence | switch fluorescence ratio
AATCACGGTA | 1.21
AATTGTGTCG | 0.972
ATGGAATGGT | 0.955
GATTAATTAT | 1.03
AACGGCCT | 1.01
TGTATTTTC | 1.03
TTCGCCGATG | 1
AGAAAAGTAA | 1.02
GCTGAAATTG | 1.03
TACTGATTGA | 1.02
AAGCTTAATT | 0.984
CTTCGGGCGT | 1.03
GGGTCGAGTT | 0.945
ATGGCCGACC | 1.13
TCAAAAAACT | 1.07
GTTAGTGCGT | 0.949
TCGTAGGTTA | 1.01
GGAGGGATCC | 1.03
CATGTTGAAA | 1
CAAAGGTTT | 0.934
CCCATATGTT | 1.03
TTTCTAGCAT | 1.07
CTAGTAGCTC | 1.04
TGGTGCTATA | 0.999
TGGCAATAAT | 2.33
ACAATGCTTC | 1.11

Sequence | switch fluorescence ratio
ATAACGGTCT | 0.991
GATGCTGCAT | 1.01
GTGCTGGGAC | 1.04
GATGCTCACA | 1.02
TGGTGCGATC | 1.06
GCTTATTCTG | 0.971
TTTATCACGC | 1.06
TAGGCCTTCT | 1.6
TACGGACAAC | 1.33
ATCAAGGGCA | 0.982
TCAAGGGATG | 1.01
GGTCTCAAAC | 1.05
AAAGGTGCA | 1.06
CAACCGATTT | 1.18
AAGGTTGGCG | 1.01
ACTGTATTT | 1.18
ACGAAAGCGA | 0.926
AAAGCCCCGA | 1.03
GCGTCTTTGA | 1.02
GTTTGTCGTA | 1.01
TTACAAGTCG | 1
ATTACTTAGT | 1.03
ATCTGGTCGT | 0.98
TCGACTCCCC | 2.53
GCTCCATG | 1.07
AGTAATTATA | 1.01

Sequence | switch fluorescence ratio
CCCAGGGAGA | 1.23
AATTACTCCT | 1.18
ATTAATCGT | 1.01
GAATAGACAG | 0.985
CTGTAGGAAA | 1.02
AGATAGAAAT | 1.01
GTTATAGATG | 0.996
GCGGCCGGAT | 1.07
GCTAATAAGC | 0.959
TAGGTGAATA | 0.993
ACCAGTTG | 1.03
TGGTGAGGAC | 1.02
TCTCGAGTTG | 1.01
CAAAATTGAC | 0.991
AGGTGTCCTG | 0.999
GGAATCGTCA | 0.984
TTGAAGCGAA | 1.18
GACGAACGTG | 1.16
AAGCCGAGCA | 0.991
GACGGTGGCC | 0.974
AATCAGGTGT | 2.56
CTAACGCCGG | 1.04
GGACTTAACA | 1.09
CAATACTAAA | 1.06
GGGTAGTTGT | 0.994
GAAGCATGAG | 1.24

Sequence | switch fluorescence ratio
ACAATGCCGT | 0.977
ACTAGGATTG | 1.02
CTGCATGTGT | 1.04
TTGCGCCGA | 1.01
TCCGTGATAA | 7.25
ACTGCCAAAG | 1.02
AGAGAATGAA | 0.983
GCCCGAGATA | 1.05
ACACCGACGT | 1.56
GCGTCAATCA | 1.1
AACGAATTCG | 0.974
TGCGAAGTCG | 1.03
GGGGTATG | 1.01
GGTTACAATG | 1.02
GAGGTGTCTC | 0.992
CACAACTGTC | 0.995
AAGAGGACGT | 0.993
GGCCTGATTC | 1.02
ATTTGCACTC | 1.05
ATGATATACT | 1.03
GTACGAGCAA | 4.79
TTCAGGGAGT | 0.983
AACGGTAAA | 1.03
GCAGATGTT | 1.01
AATAACATTG | 0.982
CCTACATGAG | 1.07

Sequence | switch fluorescence ratio
TCTCATGCTT | 1.04
CTGGCCGGCA | 0.998
ATGGGTTGAA | 0.992
CCGTTGATCG | 1.02
ACGCATTCCT | 1.61
CATATATCTA | 0.956
AGGTTAGGAT | 1.01
CATCTCGGCT | 0.971
CGCGAATTCG | 0.989
TTCTTCAATA | 1.02
TCGGGCGGC | 1.01
CGGCGCAGGG | 1.15
TTTCGAAGCA | 1.64
CATCCTCCGG | 2.67
GTCTTATATC | 1.17
TTGTGATGAT | 1.08
TTCGAAGAGT | 0.974
TGGCCGATAA | 1.11
TTATTGGTTA | 0.997
ATCCTGCACT | 1.11
GGTTCTTGAT | 1.05
GTAGTGTGAG | 0.978
CAAATGGTAT | 0.989
GCCAGAAGCG | 1
GGGATAGGTC | 1.04
CATTTAGTTC | 1

Sequence | switch fluorescence ratio
CCGCGGCAG | 2.43
GCTTATCGGA | 0.978
TGTCGAAACT | 1.02
AGACTCGGGA | 0.996
CATTCTTATT | 1.01
TGTTGGACG | 1
TCGGCCACGT | 1.01
ATCAGATTTC | 1.01
GATGCAGGAA | 1.13
TCTCGCCCAT | 1.07
CATGTGCGGA | 1.02
AGGAGCCATA | 0.989
AGCCACCGTT | 1.05
AAGTTCTGA | 1.01
TTAGTGTCTG | 0.991
AGTCCTCCCG | 1.4
TATTTGGTTC | 1
GTTTTAGG | 0.996
GGCACCGTGG | 0.981
TAAGTGACGC | 1.02
CGATCTAGTG | 1
TGGACACACA | 1.31
AGTTTGATCC | 1.01
CTATTCCGTC | 1.03
TCTCGGCCCG | 1
AGTTACAAGG | 1.05

Sequence | switch fluorescence ratio
GGAGCAGAGG | 1.17
CTCCCCAGTA | 1.04
CCCAGGGCGC | 1.03
CTTTCAGTAA | 1.03
AGAATAATTT | 1.04
AATTACATGT | 1.03
TGGTCCCGAT | 1.28
TTATTAGAG | 1.05
GATACTGTTT | 0.966
CCATAATTTC | 1.05
CCGACGGTGG | 1.01
CCGTAAGTGG | 1.1
ACAGAGCGGT | 1.13
AAGCCATAAT | 0.999
GCCGATTTTT | 0.985
CACGCGGTGA | 1.02
GCCAGTAACA | 0.995
GTGGAATCGA | 1.01
AGGTATTCCG | 0.883
TCGTTTCGTA | 0.978
CGGCCCGGTG | 2.11
ATATTTTCTA | 0.98
TGATGGAACT | 1.04
AGGAGATTT | 0.993
TATCCCAAC | 1.02
TCTGAGTTAT | 1.03

Sequence | switch fluorescence ratio
CGAAATAGTC | 1.55
ACGTCGGGTT | 1.13
GGGTGCTGAT | 1.02
GTCGACTGGG | 1
CGCGATGGCA | 1.03
GTTGCGTATG | 0.953
CGCGTTTACC | 1.04
AGATCAGAGC | 1.03
CAACGGATAG | 1.09
TCAGCGGGAA | 0.995
GCAGGGCGAT | 1.02
GCGCATTTCT | 1.18
GGTCGGCT | 0.985
CGTATTGTGG | 0.933
TCTCTTCTTT | 1.04
GCATCACCGG | 1.01
GGTTACTTA | 1.04
GTTGATAGG | 0.999
CCTCGAGGTC | 1.04
